B1: Anti-cKIT Ab2 (antibody)
heavy: QVQLVQSGAEVKKPGSSVKVSCKASGGTFSSHALSWVRQAPGQGLEWMGGIIPSFGTADYAQKFQGRVTITADESTSTAYMELSSLRSEDTAVYYCARGLYDFDYWGQGTLVTVSSASTKGPSVFPLAPSSKSTSGGTAALGCLVKDYFPEPVTVSWNSGALTSGVHTFPAVLQSSGLYSLSSVVTVPSSSLGTQTYICNVNHKPSNTKVDKRV[human IgG1 Fc left out]
light: DIQMTQSPSSLSASVGDRVTITCRASQDISQDLAWYQQKPGKAPKLLIYDASSLQSGVPSRFSGSGSGTDFTLTISSLQPEDFAVYYCQQYYYLPSTFGQGTKVEIKRTVAAPSVFIFPPSDEQLKSGTASVVCLLNNFYPREAKVQWKVDNALQSGNSQESVTEQDSKDSTYSLSSTLTLSKADYEKHKVYACEVTHQGLSSPVTKSFNRGEC
B2: Anti-cKIT Ab3 (antibody)
heavy: QVQLVQSGAEVKKPGSSVKVSCKASGGTFSSYAISWVRQAPGQGLEWMGTIGPFEGQPRYAQKFQGRVTITADESTSTAYMELSSLRSEDTAVYYCARGGYISDFDVWGQGTLVTVSSASTKGPSVFPLAPSSKSTSGGTAALGCLVKDYFPEPVTVSWNSGALTSGVHTFPAVLQSSGLYSLSSVVTVPSSSLGTQTYICNVNHKPSNTKVDKRV[human IgG1 Fc left out]
light: DIQMTQSPSSLSASVGDRVTITCRASQSISNYLAWYQQKPGKAPKLLIYDASSLQSGVPSRFSGSGSGTDFTLTISSLQPEDFATYYCQQYYYESITFGQGTKVEIKRTVAAPSVFIFPPSDEQLKSGTASVVCLLNNFYPREAKVQWKVDNALQSGNSQESVTEQDSKDSTYSLSSTLTLSKADYEKHKVYACEVTHQGLSSPVTKSFNRGEC
B3: Anti-cKIT Ab1 (antibody)
heavy: QVQLVQSGAEVKKPGSSVKVSCKASGGTFSSYAISWVRQAPGQGLEWMGVIFPAEGAPGYAQKFQGRVTITADESTSTAYMELSSLRSEDTAVYYCARGGYISDFDVWGQGTLVTVSSASTKGPSVFPLAPSSKSTSGGTAALGCLVKDYFPEPVTVSWNSGALTSGVHTFPAVLQSSGLYSLSSVVTVPSSSLGTQTYICNVNHKPSNTKVDKRV[human IgG1 Fc left out]
light: DIQMTQSPSSLSASVGDRVTITCRASQSISNYLAWYQQKPGKAPKLLIYDASSLQSGVPSRFSGSGSGTDFTLTISSLQPEDFATYYCQQYYYESITFGQGTKVEIKRTVAAPSVFIFPPSDEQLKSGTASVVCLLNNFYPREAKVQWKVDNALQSGNSQESVTEQDSKDSTYSLSSTLTLSKADYEKHKVYACEVTHQGLSSPVTKSFNRGEC

Legend:
Type in all cases: binding
mouse cKIT = target: T1, mouse cKIT (Mus musculus, UniProt P05532); assay: Cross reactivity of cKIT antibodies to mouse cKIT
T1 construct: 3.125-50 nM of cKIT receptor extracellular domains (ECD) were diluted in a 2-fold series; purchased Sino Biological Inc 50530-M08H
T1 sequence (P05532 25-527 limits assumed): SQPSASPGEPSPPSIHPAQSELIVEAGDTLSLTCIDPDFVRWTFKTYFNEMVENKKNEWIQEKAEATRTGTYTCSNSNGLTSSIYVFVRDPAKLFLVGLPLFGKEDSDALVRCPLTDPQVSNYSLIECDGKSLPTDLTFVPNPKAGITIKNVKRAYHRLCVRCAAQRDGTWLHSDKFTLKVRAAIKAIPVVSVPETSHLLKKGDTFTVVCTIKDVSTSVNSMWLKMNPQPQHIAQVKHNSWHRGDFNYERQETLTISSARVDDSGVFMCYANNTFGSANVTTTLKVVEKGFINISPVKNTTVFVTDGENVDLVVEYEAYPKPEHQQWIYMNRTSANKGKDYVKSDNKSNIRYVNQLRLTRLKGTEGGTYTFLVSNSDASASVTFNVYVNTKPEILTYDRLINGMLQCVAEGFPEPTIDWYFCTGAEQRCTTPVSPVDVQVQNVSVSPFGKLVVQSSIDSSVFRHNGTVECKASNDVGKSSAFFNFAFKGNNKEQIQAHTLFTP
Experimental: (§1) Affinity of the antibodies to cKIT species orthologues and also to human cKIT was determined using SPR technology using a Biacore® 2000 instrument (GE Healthcare, Pittsburgh, Pa.) and with CM5 sensor chips. Briefly, HBS-P (0.01 M HEPES, pH 7.4, 0.15 M NaCl, 0.005% Surfactant P20) supplemented with 2% Odyssey® blocking buffer (Li-Cor Biosciences, Lincoln, Nebr.) was used as the running buffer for all the experiments. The immobilization level and analyte interactions were measured by response unit (RU). Pilot experiments were performed to test and confirm the feasibility of the immobilization of the anti-human Fc antibody (Catalog number BR100839, GE Healthcare, Pittsburgh, Pa.) and the capture of the test antibodies. For kinetic measurements, the experiments were performed in which the antibodies were captured to the sensor chip surface via the immobilized anti-human Fc antibody and the ability of the cKIT proteins to bind in free solution was determined. Briefly, 25 μg/ml of anti-human Fc antibody at pH 5 was immobilized on a CM5 sensor chip through amine coupling at flow rate of 5 μl/min on both flow cells to reach 10,500 RUs. 0.1-1 μg/ml of test antibodies were then injected at 10 μl/min for 1 minute. Captured levels of the antibodies were generally kept below 200 RUs. Subsequently, 3.125-50 nM of cKIT receptor extracellular domains (ECD) were diluted in a 2-fold series and injected at a flow rate of 40 μl/min for 3 min over both reference and test flow cells. A table of tested ECDs is listed below (Table 5). Dissociation of ECD binding was followed for 10 min. After each injection cycle, the chip surface was regenerated with 3 M MgCl2 at 10 μl/min for 30 seconds.

rat cKIT = assay: Cross reactivity of cKIT antibodies to rat cKIT
Experimental: as §1

human cKIT ECD = target: T2, human cKIT ECD (Homo sapiens, UniProt P10721); assay: Affinity measurement of cKIT antibodies to human cKIT ECD; conditions: read-out: KD (pM) to human cKIT ECD in SET
T2 construct: 26-520-TAG; host or cells: HEK293 derived cell line 293FS, transient transfection
T2 sequence (P10721 with tags, fused parts or gaps isoform P10721-2): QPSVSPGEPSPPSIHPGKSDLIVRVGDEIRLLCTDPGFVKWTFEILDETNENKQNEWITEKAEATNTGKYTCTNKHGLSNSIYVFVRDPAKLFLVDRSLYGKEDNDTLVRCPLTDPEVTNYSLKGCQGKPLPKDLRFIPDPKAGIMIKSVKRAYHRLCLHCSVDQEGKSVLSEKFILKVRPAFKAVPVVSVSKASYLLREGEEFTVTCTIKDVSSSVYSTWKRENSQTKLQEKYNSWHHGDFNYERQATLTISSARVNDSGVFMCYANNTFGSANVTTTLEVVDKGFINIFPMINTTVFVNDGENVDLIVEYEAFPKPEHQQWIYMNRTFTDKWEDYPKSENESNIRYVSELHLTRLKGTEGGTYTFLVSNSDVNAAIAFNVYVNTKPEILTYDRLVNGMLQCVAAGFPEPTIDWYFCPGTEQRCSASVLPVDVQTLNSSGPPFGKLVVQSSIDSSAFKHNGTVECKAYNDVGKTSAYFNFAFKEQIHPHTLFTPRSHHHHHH
Experimental: as §1, with “Subsequently, 3.125-50 nM of cKIT receptor extracellular domains (ECD) were diluted in a 2-fold series and injected at a flow rate of 40 μl/min for 3 min over both reference and test flow cells. A table of tested ECDs is listed below (Table 5). Dissociation of ECD binding was followed for 10 min. After each injection cycle, the chip surface was regenerated with 3 M MgCl2 at 10 μl/min for 30 seconds.” left out

Molecule | Reactivity to mouse cKIT (mouse cKIT) | Reactivity to rat cKIT (rat cKIT) | Kd (human cKIT ECD) [pM]
B1 | Not reactive | Not reactive | 
B2 | Not reactive | Not reactive | 160
B3 | Not reactive | Not reactive | 
